# Measured values as given in article PMC4336329 (PLoS ONE, 2015).
# The campaign covered roughly 310,000 compounds. About 2,200 (0.71%) showed an effect of 50% or more. The effect is printed as a negative number. The list shows a part of the results.
# Target: human ether-à-go-go-related gene (hERG) potassium channel (human, UniProt Q12809)
# Assay: primary screen, population patch clamp on CHO cells stably expressing hERG
# human ether-à-go-go-related gene (hERG) potassium channel, sequence (Q12809 whole entry, looked up): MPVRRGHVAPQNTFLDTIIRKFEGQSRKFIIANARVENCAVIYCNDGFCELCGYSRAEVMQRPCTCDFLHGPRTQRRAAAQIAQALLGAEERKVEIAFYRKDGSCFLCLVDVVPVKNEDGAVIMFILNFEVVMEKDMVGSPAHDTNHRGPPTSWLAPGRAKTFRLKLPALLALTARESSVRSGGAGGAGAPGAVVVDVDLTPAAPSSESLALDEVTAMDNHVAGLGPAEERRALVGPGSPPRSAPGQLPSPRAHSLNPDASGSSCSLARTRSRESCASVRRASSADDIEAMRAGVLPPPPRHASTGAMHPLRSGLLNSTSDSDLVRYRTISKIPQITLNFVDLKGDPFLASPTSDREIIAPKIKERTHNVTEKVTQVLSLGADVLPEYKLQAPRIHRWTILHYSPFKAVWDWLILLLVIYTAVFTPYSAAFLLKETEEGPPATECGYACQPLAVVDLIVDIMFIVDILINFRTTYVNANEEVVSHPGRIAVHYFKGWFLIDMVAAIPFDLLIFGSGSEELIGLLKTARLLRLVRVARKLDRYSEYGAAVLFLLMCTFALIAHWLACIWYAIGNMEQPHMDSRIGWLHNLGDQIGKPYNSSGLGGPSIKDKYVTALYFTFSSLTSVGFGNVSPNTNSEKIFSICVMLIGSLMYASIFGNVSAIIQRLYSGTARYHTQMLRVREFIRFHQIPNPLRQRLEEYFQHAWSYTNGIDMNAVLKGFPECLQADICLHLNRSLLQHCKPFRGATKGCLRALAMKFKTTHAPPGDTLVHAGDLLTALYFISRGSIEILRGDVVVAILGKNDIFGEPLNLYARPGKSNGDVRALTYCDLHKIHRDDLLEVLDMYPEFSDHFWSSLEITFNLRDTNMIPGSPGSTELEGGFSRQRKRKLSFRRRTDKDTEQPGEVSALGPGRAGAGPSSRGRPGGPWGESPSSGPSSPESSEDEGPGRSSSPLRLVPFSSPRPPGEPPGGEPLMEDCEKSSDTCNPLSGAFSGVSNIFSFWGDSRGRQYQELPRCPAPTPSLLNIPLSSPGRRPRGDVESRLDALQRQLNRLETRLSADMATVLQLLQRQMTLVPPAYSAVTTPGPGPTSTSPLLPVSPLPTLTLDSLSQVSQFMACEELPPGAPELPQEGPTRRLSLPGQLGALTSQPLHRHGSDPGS
row,SMILES,"hERG current change (%, negative = inhibition) at 1uM [%]"
1,CCN(CC)c1ccc(N=CN2CCOCC2)cc1,15.6
2,CCOc1ccc(NS(=O)(=O)c2ccc(NS(=O)(=O)c3ccc(SC)cc3)cc2)cc1,9.23
3,C=C(C)c1cccc(C(C)(C)NC(=O)NC2CN3CCC2CC3)c1 (stereo not shown),3.81
4,CCCC(=O)N1CC2(CCC)CN(C(=O)CCC)CC(CCC)(C1)C2=O,6.16
5,CC(=O)Nc1ccc(S(=O)(=O)NNC(=S)NCC2CCCO2)cc1 (stereo not shown),15.1
6,Cc1cc(C(=O)O)n(C(C)(C)C)n1,7.4
7,CCN(CCO)C(=O)CC(c1ccccc1)c1cc(Br)ccc1O (stereo not shown),-4.66
8,COc1ccc(S(=O)(=O)N2CCCc3ccccc32)cc1OC,5.82
9,Cc1ccc(CNC(=O)Cn2nnc(C(=O)Nc3cccc(C)c3C)c2N)cc1,15.6
10,COc1cc2cc(CCCOC(=O)c3ccc(C(F)(F)F)cc3)oc(=O)c2cc1OC,10.5
11,CC(C)CC1Nc2ncnc(N3CCN(c4ccccc4)CC3)c2N(Cc2ccc(Cl)cc2)C1=O.O=C(O)C(F)(F)F (stereo not shown),14.7
12,O=C(NCc1cccc(C(F)(F)F)c1)C1CC(c2ccccc2F)=NO1 (stereo not shown),5.42
13,CN1CCN(C(=O)C2CCCN(S(=O)(=O)c3ccc(Cl)cc3)C2)CC1 (stereo not shown),1.84
14,Cc1cccc(-c2oc(C)c(C)[n+]2[O-])c1.Cl,-1.74
15,Cc1ccccc1N=C(NO)c1cccnc1,13.5
16,O=C(CN1CCN(c2ccc(F)cc2)CC1)Nc1cccnc1Cl,2.93
17,O=C(NNC(=O)c1ccc(SCC2CCCO2)c([N+](=O)[O-])c1)c1ccc(Cl)c([N+](=O)[O-])c1 (stereo not shown),-2.18
18,Cc1nc(S(=O)(=O)Cc2ccccc2Cl)nc2c1CCC2,19.4
19,COc1ccc(N=C2C(=Nc3ccc(OC)cc3)N(c3ccc(N(C)C)cc3)C(=S)N2c2ccc(OC)cc2)cc1,1.24
20,CCOC(=O)C1CCCN(C(=O)c2ccco2)C1 (stereo not shown),5.15
21,O=c1n(Cc2ccccc2Cl)nc2n1-c1ccccc1SC2,9.36
22,NC(=O)/C(=C\c1ccco1)NC(=O)c1ccc(Br)o1,1.36
23,CC(OC(=O)c1cccc(-n2cnnn2)c1)C(=O)N(C)c1ccccc1 (stereo not shown),-4.76
24,COc1ccc(/C=C/C(=O)N[C@@H](C)C(=O)O)cc1,4.64
25,CCOC(=O)C1=C(C)N=c2s/c(=C\c3ccc(OCC(=O)O)cc3)c(=O)n2C1c1ccc(Cl)cc1 (stereo not shown),19.1
